{"source": "paper PMC4336329", "about": "(PLoS ONE, 2015)", "note": "In all, about 310,000 compounds went through this assay and about 14,000 (4.5%) showed an effect of 50% or more. Effects have a minus sign here. The list shows a part of the results.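 Also: peak tail current of the secondary pulse compared with the same well before compound.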"}
{"biological_target": "human ether-à-go-go-related gene (hERG) potassium channel (human, UniProt Q12809)", "sequence (Q12809 whole entry, looked up)": "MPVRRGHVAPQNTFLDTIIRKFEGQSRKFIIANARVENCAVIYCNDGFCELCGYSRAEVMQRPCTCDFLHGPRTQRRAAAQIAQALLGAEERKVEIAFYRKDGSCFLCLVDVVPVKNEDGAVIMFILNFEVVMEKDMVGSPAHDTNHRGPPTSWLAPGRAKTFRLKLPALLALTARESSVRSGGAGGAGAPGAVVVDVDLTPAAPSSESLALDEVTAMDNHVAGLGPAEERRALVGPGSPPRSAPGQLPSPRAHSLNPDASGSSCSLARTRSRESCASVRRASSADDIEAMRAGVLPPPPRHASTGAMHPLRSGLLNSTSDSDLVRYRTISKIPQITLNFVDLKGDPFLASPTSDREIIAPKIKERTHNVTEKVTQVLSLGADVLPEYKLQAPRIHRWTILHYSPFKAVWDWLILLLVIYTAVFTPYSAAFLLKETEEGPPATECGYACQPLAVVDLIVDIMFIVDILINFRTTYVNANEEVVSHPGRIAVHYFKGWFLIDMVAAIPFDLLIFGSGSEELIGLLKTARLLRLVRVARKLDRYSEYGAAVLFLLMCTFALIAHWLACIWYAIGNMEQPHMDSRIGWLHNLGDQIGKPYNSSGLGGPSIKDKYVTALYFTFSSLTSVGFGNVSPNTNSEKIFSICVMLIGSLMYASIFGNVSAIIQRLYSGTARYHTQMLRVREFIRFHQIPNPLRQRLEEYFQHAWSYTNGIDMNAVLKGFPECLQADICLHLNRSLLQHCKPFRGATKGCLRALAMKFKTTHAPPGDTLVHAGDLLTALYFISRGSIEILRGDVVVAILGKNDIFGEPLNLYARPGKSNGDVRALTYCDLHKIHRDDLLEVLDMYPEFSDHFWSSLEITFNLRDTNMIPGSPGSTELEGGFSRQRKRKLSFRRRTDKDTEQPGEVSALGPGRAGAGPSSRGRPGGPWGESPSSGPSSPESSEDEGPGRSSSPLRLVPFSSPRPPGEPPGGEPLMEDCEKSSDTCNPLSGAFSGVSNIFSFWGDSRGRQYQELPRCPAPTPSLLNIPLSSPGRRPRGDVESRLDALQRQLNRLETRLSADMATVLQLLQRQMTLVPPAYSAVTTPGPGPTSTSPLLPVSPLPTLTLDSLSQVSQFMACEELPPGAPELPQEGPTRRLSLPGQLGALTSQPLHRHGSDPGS", "assay": "primary screen, population patch clamp on CHO cells stably expressing hERG", "units": {"hERG current change (%, negative = inhibition) at 10uM": "%"}}
{"smiles": "Cc1c(/C(Cc2ccccc2)=N/O)c2ccccc2n1C", "hERG current change (%, negative = inhibition) at 10uM": -5.26}
{"smiles": "Cc1ccc(N(C(=O)c2csnn2)C(C(=O)NC2CCCCC2)c2ccccn2)cc1C", "note": "(stereo not shown)", "hERG current change (%, negative = inhibition) at 10uM": -4.55}
{"smiles": "CCOC(=O)C1CCN(C(c2ccc(OC)c(OC)c2)c2sc3nc(C)nn3c2O)CC1", "note": "(stereo not shown)", "hERG current change (%, negative = inhibition) at 10uM": 9.76}
{"smiles": "O=C1c2ccccc2C(=O)N1CCOc1ccccc1Cl", "hERG current change (%, negative = inhibition) at 10uM": 23.8}
{"smiles": "O=C(NC(c1ccccc1)c1cc(Cl)c2cccnc2c1O)c1cccnc1", "note": "(stereo not shown)", "hERG current change (%, negative = inhibition) at 10uM": -2.27}
{"smiles": "COC(=O)c1ccc(OCC(=O)Nc2ccsc2C(=O)OC)cc1", "hERG current change (%, negative = inhibition) at 10uM": 5.73}
{"smiles": "O=c1[nH]c(SCc2ccccc2Cl)nc2c1CCCC2", "hERG current change (%, negative = inhibition) at 10uM": 7.18}
{"smiles": "O=C(O)/C=C\\c1cn(-c2ccccc2)nc1-c1cc2ccccc2o1", "hERG current change (%, negative = inhibition) at 10uM": 35.9}
{"smiles": "Cc1nc(Nc2ccc(O)cc2)c2c3c(sc2n1)CCCC3", "hERG current change (%, negative = inhibition) at 10uM": -20.3}
{"smiles": "O=C(c1ccco1)N1CCN(Cc2cc(=O)c(OCc3ccccc3)co2)CC1", "hERG current change (%, negative = inhibition) at 10uM": -25.5}
{"smiles": "CCCCN(C)C(=O)C1CCN(C/C(C)=C/c2ccccc2)CC1.O=C(O)C(=O)O", "hERG current change (%, negative = inhibition) at 10uM": -73.4}
{"smiles": "CCCn1cc([C@@H]2C[C@H]3CN(Cc4cccc(Cl)c4)C(=O)[C@]34CCCN24)c(C)n1", "hERG current change (%, negative = inhibition) at 10uM": -67.3}
{"smiles": "Cn1nc(C(C)(C)C)c([N+](=O)[O-])c1C(=O)NCCO", "hERG current change (%, negative = inhibition) at 10uM": -0.284}
{"smiles": "O=C(OCc1ccccc1Cl)c1ccc(-n2cnnc2)cc1", "hERG current change (%, negative = inhibition) at 10uM": -22.9}
{"smiles": "Cc1ccc(Cl)cc1N1C(=O)CC(C)(C)CC1=O", "hERG current change (%, negative = inhibition) at 10uM": 19.3}
{"smiles": "O=C1OC(c2ccc(F)cc2)=C/C1=C\\c1ccc(O)cc1", "hERG current change (%, negative = inhibition) at 10uM": 21.3}
{"smiles": "CSc1ncccc1C(=O)N1CCN(S(=O)(=O)c2ccc(F)cc2)CC1", "hERG current change (%, negative = inhibition) at 10uM": 11.8}
{"smiles": "O=C(O)C1CCC(CNS(=O)(=O)c2ccc(Cl)cc2)CC1", "note": "(stereo not shown)", "hERG current change (%, negative = inhibition) at 10uM": 32.1}
{"smiles": "CSc1nnc(C)c(=O)n1COC(=O)COc1ccc(Cl)cc1", "hERG current change (%, negative = inhibition) at 10uM": 9.15}
{"smiles": "COc1ccc(CN2C(=O)C(O)(CC(=O)c3ccc4c(c3)OCO4)c3ccccc32)cc1OC", "note": "(stereo not shown)", "hERG current change (%, negative = inhibition) at 10uM": -11.2}
{"smiles": "CCOC(=O)CNC(c1ccccc1)c1cc(Br)ccc1NC(C)=O", "note": "(stereo not shown)", "hERG current change (%, negative = inhibition) at 10uM": -19}
{"smiles": "CCCN1CNc2c(c(=O)[nH]c(=S)n2-c2ccc(Cl)cc2)C1", "hERG current change (%, negative = inhibition) at 10uM": -1.46}
{"smiles": "Cc1cccc(-n2nnnc2SCC(=O)NCCN2C(=O)CSC2=O)c1", "hERG current change (%, negative = inhibition) at 10uM": -24}
{"smiles": "COc1ccc(Br)cc1CNCCSc1nnnn1C.Cl", "hERG current change (%, negative = inhibition) at 10uM": -18.4}
{"smiles": "O=C(Cn1cc2c(n1)CCCC2)NC1CCN(Cc2ccccc2)CC1", "hERG current change (%, negative = inhibition) at 10uM": -8.32}
{"smiles": "Cc1nc(/C(=N/O)C(N)=O)cs1", "hERG current change (%, negative = inhibition) at 10uM": 17.7}
{"smiles": "CCCCOc1ccccc1Cn1c(=O)oc2ccc(C)cc21", "hERG current change (%, negative = inhibition) at 10uM": 3.83}
{"smiles": "CC(C)c1nnc(NC(=O)CCN2C(=O)c3ccccc3C2=O)s1", "hERG current change (%, negative = inhibition) at 10uM": 10.4}
{"smiles": "C1=CC2CC1CC2CN1CCN(Cc2ccccc2)CC1.O=C(O)C(=O)O", "note": "(stereo not shown)", "hERG current change (%, negative = inhibition) at 10uM": -11.6}
{"smiles": "COc1ccc(OC)c(C2=NOC(C(=O)NCc3ccccn3)C2)c1", "note": "(stereo not shown)", "hERG current change (%, negative = inhibition) at 10uM": 2.95}
{"smiles": "O=C(CCN1CCc2ccccc2C1)Nc1cccc(F)c1", "hERG current change (%, negative = inhibition) at 10uM": -34}
{"smiles": "O=C(c1ccco1)N1CCN(C(c2ccc(F)cc2)c2nnnn2CC2CCCO2)CC1", "note": "(stereo not shown)", "hERG current change (%, negative = inhibition) at 10uM": -13.7}
{"smiles": "CC(=O)c1cc(NC(=O)c2ccccc2)c(=O)oc1/C=C/N(C)C", "hERG current change (%, negative = inhibition) at 10uM": -12.1}
{"smiles": "COc1ccc(C2=CSC3=NCCN23)cc1[N+](=O)[O-]", "hERG current change (%, negative = inhibition) at 10uM": -26.1}
{"smiles": "O=CN(c1ccccc1)c1ccc2ccccc2c1", "hERG current change (%, negative = inhibition) at 10uM": -10.4}
{"smiles": "O=C(NCC(=O)N1CCN(S(=O)(=O)c2cccs2)CC1)c1ccc(Cl)cc1", "hERG current change (%, negative = inhibition) at 10uM": -47.9}
{"smiles": "O=C(Nc1nc2ccccc2s1)C1CC(=O)N(c2ccc(Br)cc2)C1", "note": "(stereo not shown)", "hERG current change (%, negative = inhibition) at 10uM": 1.01}
{"smiles": "O=C(c1ccc(S(=O)(=O)c2cccc(Cl)c2)c([N+](=O)[O-])c1)N1CCN(Cc2ccccc2)CC1", "hERG current change (%, negative = inhibition) at 10uM": -1.62}
{"smiles": "COc1ccccc1NS(=O)(=O)c1cccc(C(=O)N/N=C(\\C)c2ccc(-n3ccnc3)cc2)c1", "hERG current change (%, negative = inhibition) at 10uM": -38.8}
{"smiles": "Cc1ccc(C(=O)NC(=O)CSc2ncccc2C(=O)O)cc1", "hERG current change (%, negative = inhibition) at 10uM": 11.5}
{"smiles": "Br.CC(=O)c1sc(N/N=C2\\CC3CCC2(C)C3(C)C)nc1C", "note": "(stereo not shown)", "hERG current change (%, negative = inhibition) at 10uM": 18.4}
{"smiles": "COc1cc(/C=C2\\SC(=N)N(c3ccc(F)cc3)C2=O)ccc1O", "hERG current change (%, negative = inhibition) at 10uM": 24.8}
{"smiles": "CC(=O)c1cccc(OCC(O)CNCCOc2ccc(C)cc2)c1", "note": "(stereo not shown)", "hERG current change (%, negative = inhibition) at 10uM": -36.5}
